To fix the notation:
B1: chr11:214995:215097:+|3pUTR|ENSG00000177963|unk|FALSE|unique (ssRNA)
RNA: GGGAGUUCUACAGUCCGACGAUCCCUCCUUCCUACUGGUUUAGACUACACUUACAACAAGGAAAAUGCCCCUCGUGUGACCAUAGAUUGAGAUUUAUACCACAUACCACACAUAGCCACAGAAACAUCAUCUUGAAAUAAAGACAACAGAGGAUUGAGCAUCA
B2: chr19:12317476:12318593:-|three_prime_utr|ENSG00000188868|control|control|control (ssRNA)
RNA: GGGAGUUCUACAGUCCGACGAUCCACCAUUGUCAACAUAAAACAACUCACAGAGCAGAAAAACUCUGUGAGUGUAAAAUAUGUAGGGAAGCCUUCAGUCAUUUUGGUAACUUAAAAGUACAUGAGGCUGGGCACAGUGGCUCACAACAGAGGAUUGAGCAUCA
B3: chr20:3933335:3933436:-|3pUTR|ENSG00000101236|msi1|total|mutant (ssRNA)
RNA: GGGAGUUCUACAGUCCGACGAUCUUACAACACCUGCUAUCAAAUCAUCUAAGCUGAAAACAUGAGAUGCGCUUGGAAAGGCCCCGUCAGAAGCCAUUUCCUCUUAUCAUUUCCCUCUCCUAUGCACCAGUAAGGCCCGUCCAGCAACAGAGGAUUGAGCAUCA
B4: chr7:30013596:30013706:-|3pUTR|ENSG00000106080|msi1|total|mutant (ssRNA)
RNA: GGGAGUUCUACAGUCCGACGAUCUUAUAUUCAAUAUUUACUUCUUAAGGCCCGCGGAAUAUCCUUCCUGGUUCUUUAAUGGGCCGUCUACCGUAUAUUAUACUACAAUAACAUUGUAUCAUAAGAUAAAGCCGUAAACCAGUCCAACAGAGGAUUGAGCAUCA
B5: chr11:119314942:119315043:-|CDS|ENSG00000076706|msi1|FALSE|unique (ssRNA)
RNA: GGGAGUUCUACAGUCCGACGAUCGGGAGACUCUGCCCCUCUUGUAGCCCAGGACCCUUCUCCUCCUCUGUGUCUCCUCCCAUUAGGUCCACAAGGAGAAGCGGACGCUCAUCUUCCGUGUGCGCCAGGGCCAGGGCCAGAGCGCAACAGAGGAUUGAGCAUCA
B6: chr13:73693106:73693207:-|3pUTR|ENSG00000118922|msi1|FALSE|unique (ssRNA)
RNA: GGGAGUUCUACAGUCCGACGAUCCAGAGAACACAGAGAGGGACAAACACAGCCAUGAACCCCCUGGCACUAGUACCAGCACCUAGUUGGCAAGUAGUGGGUGCAUCUCUCAAGUGAAGUGUAGAUUUGUAUUUAGUCCUGCUUCAACAGAGGAUUGAGCAUCA
B7: chr2:205796522:205796663:+|3pUTR|ENSG00000118257|msi1|FALSE|unique (ssRNA)
RNA: GGGAGUUCUACAGUCCGACGAUCGUUUUUAUUAAGUGCCUUGAAAAAAUGAAGAAAAAUGUAUUUUCCCUUUAUGUAAAAAUUAGUGAAUAUCUUAUGAAUUAAGGCAUUCCUCUUUCCCUAACCCCGAUGGCUCCAUUCCCACAACAGAGGAUUGAGCAUCA
B8: chr1:2308404:2308505:+|3pUTR|ENSG00000157933|unk|total|mutant (ssRNA)
RNA: GGGAGUUCUACAGUCCGACGAUCUUCUUUGCUUUUGUUUUCUUUGCGGUUGUUCUGUGUGCAUGGAUUCCACACCUCUGCCGCCGGCCGAUCCGUCAGCGGGCAUUAUUACCGUGUCUUGUAAAGGGUCGGUUUUGUUAUGCACAACAGAGGAUUGAGCAUCA
B9: chr11:86278520:86278536:+|CDS_3pUTR|ENSG00000074266|msi1_unk|total|mutant (ssRNA)
RNA: GGGAGUUCUACAGUCCGACGAUCUGAUGCCAGUAUUUGGCGCUGGGAUCGACUUCGAUAAAAUACUUUUGCCUAAUCAAAAUCCGAGUGUGUUUGUUGUCUGUGUAAAACCGAAUUAAUGUAUCUUGCCCGUAAGGGCACGUACAACAGAGGAUUGAGCAUCA
B10: chr20:58459100:58460789:-|three_prime_utr|ENSG00000198768|control|control|control (ssRNA)
RNA: GGGAGUUCUACAGUCCGACGAUCACAUCAGGAUGGCGGCUCUGGACACCCAUUCAACCCUUCAGACUCCCUCCUGGCAGCUGUAGGGAAGGAACCAUUCUCCUCUGCUCUGUCAUGGAUGGAUGCACAGCCCCACUGCUUCCACAACAGAGGAUUGAGCAUCA
B11: chr4:137519872:137519973:-|3pUTR|ENSG00000189184|unk|total|mutant (ssRNA)
RNA: GGGAGUUCUACAGUCCGACGAUCAACUAUUCAUUUUCCGCUUUUGUCUCCAGUGCAUGAUCUCAUAUUUUUGCUUUUAUUUUCCGUAUAAGAACAUUUAUAAAAUCAUAUUUUUGUUACUGCAAUUGUUUUAUUUGUUGUGUGCAACAGAGGAUUGAGCAUCA
B12: chr5:96781692:96781854:-|CDS|ENSG00000164307|control|control|control (ssRNA)
RNA: GGGAGUUCUACAGUCCGACGAUCGUGACCUUGGCAGUGUUUGCUGUGGGGGCCCAGAGCACAGAAGGCUGGGAUUUUCUUUAUAGUAAAUAUCAGUUUUCUUUGUCCAGUACUGAGAAAAGCCAAAUUGAAUUUGCCCUCUGCCAACAGAGGAUUGAGCAUCA
B13: chrX:119243754:119243940:+|3pUTR|ENSG00000101856|msi1|FALSE|unique (ssRNA)
RNA: GGGAGUUCUACAGUCCGACGAUCAGCUGCAAAAAAGCAUAUUUUCUGUGUUUCUGGACUGCACUGUUGUCCUUGCCCUCACAUAGACACUCAGACACCCUCACAAACACAGUAGUCUAUAGUUAGGAUUAAAAUAGGAUCUGACAACAGAGGAUUGAGCAUCA
B14: ENSG00000124766:be:win_2551|3pUTR|ENSG00000124766|bound_else_gene|NA|bound_elsewhere_windowed (ssRNA)
RNA: GGGAGUUCUACAGUCCGACGAUCUCUUUUAAAGAUUUCUGUAUAAGACUGUUGAGCAGUUUUUAAAAUAGUGUAGGAUAAUAUAAAAAGCAGAUAGAUGGCGCUAUGUUUGAUUCCUACAACGAAAUUAUCACCAGCUUUUUUCAACAGAGGAUUGAGCAUCA

Some of the results follow.

In the assay the target is MSI1 full-length (mouse, UniProt Q61474 1-362). The experiment in a line: nsRBNS (natural sequence RNA bind-n-seq); RBNS binding buffer (assumed for nsRBNS): 25 mM Tris pH 7.5, 150 mM KCl, 3 mM MgCl2, 0.01% Triton X-100, 500 ug/ml BSA, 20 U/ml SUPERase-In, 4 C; UNK is unkempt and MSI1 is Musashi-1; names of the RNAs are library labels; protein concentration not given here; high values mean tight binding.
UniProt Q61474, sequence (Q61474 whole entry): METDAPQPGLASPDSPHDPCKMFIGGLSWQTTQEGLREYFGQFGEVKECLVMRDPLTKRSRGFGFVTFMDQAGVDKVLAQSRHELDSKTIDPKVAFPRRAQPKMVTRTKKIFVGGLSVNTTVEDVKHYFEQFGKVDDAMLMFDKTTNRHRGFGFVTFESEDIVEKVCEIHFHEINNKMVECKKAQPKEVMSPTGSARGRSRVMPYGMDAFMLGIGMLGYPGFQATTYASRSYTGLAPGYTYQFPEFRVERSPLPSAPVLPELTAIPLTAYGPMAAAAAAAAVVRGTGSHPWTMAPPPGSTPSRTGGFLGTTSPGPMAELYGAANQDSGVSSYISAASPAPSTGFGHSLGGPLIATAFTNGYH
Turning to B1, the binding signal was found to be 8.28 enrichment R. With B2 the figure was 0.393 enrichment R; with B3, 0.482 enrichment R; with B4, 2.16 enrichment R. With B5 the figure was 0.577 enrichment R. The figure for B6 is 3.71 enrichment R; for B7 it is 1.33 enrichment R. In the case of B8, the binding signal turned out to be 0.357 enrichment R. The figure for B9 is 0.216 enrichment R; for B10 it is 0.42 enrichment R; for B11 it is 0.825 enrichment R. The figure for B12 is 0.53 enrichment R. As for B13, the binding signal came out at 7.92 enrichment R. The figure for B14 is 2.23 enrichment R.
